Test results as given in patent US10683307B2, “Compounds for use in antibacterial applications” (GLAXOSMITHKLINE INTELLECTUAL PROPERTY DEVELOPMENT LIMITED, priority 2015, dated 2020).
Counter-ions that a name gives are not always drawn. Like-named read-outs stand apart in the source and are kept apart here.

Columns and labels:
Streptococcus pyogenes = settings: Table 2 column C1 = Streptococcus pyogenes
Description: (§1) Antimicrobial Activity Assay:
(§2) Whole-cell antimicrobial activity was determined by broth microdilution using the Clinical and Laboratory Standards Institute (CLSI) recommended procedure, Document M7-A7, “Methods for Dilution Susceptibility Tests for Bacteria that Grow Aerobically” and M11-A8, “Methods for Antimicrobial Susceptibility Testing of Anaerobic Bacteria” The compounds were tested in serial two-fold dilutions ranging from 0.016 to 16 mcg/mL, as well as 0.008 to 32 μg/mL.
(§3) Compounds were also evaluated against various Gram-positive organisms, various anaerobic organisms, and against various biothreat organisms.
(§4) The minimum inhibitory concentration (MIC) was determined as the lowest concentration of compound that inhibited visible growth. A mirror reader was used to assist in determining the MIC endpoint.

Staphylococcus aureus = settings: Table 2 column A1 = Staphylococcus aureus
Description: as §1, §2, §3, §4

Streptococcus pneumonia = settings: Table 2 column B1 = Streptococcus pneumonia
Description: as §1, §2, §3, §4

[1] = test system: viridans group Streptococcus
Description: as §1, §2, §3, §4

[2] = Streptococcus pyogenes, read-out: MIC90
[3] = Streptococcus pneumoniae, read-out: MIC90

| SMILES | MIC90 (Streptococcus pyogenes; [2]) [µg/mL] | MIC90 (Staphylococcus aureus; read-out: MIC90) [µg/mL] | MIC90 (Streptococcus pneumonia; [3]) [µg/mL] | MIC90 [1] [µg/mL] | MIC90 (Streptococcus pyogenes) [µg/mL] | MIC90 (Staphylococcus aureus) [µg/mL] | MIC90 (Streptococcus pneumonia) [µg/mL] |
| --- | --- | --- | --- | --- | --- | --- | --- |
| COc1ccc2ncc(=O)n(CCN3CC[C@@H](CNCc4ncc5c(n4)NC(=O)CO5)C3)c2n1 [Formula (VII) HCl salt, 2-({[((3S)-1-{2-[6-(methyloxy)-3-oxopyrido[2,3-b]pyrazin-4(3H)-yl]ethyl}-3-pyrrolidinyl)methyl]amino}methyl)-1H-pyrimido[5,4-b][1,4]oxazin-7(6H)-one] | ≤ 0.25 | ≤ 0.125 | ≤ 0.5 | – | – | – | – |
| COc1cnc2ccc(F)c(CNC3CCC(NCc4cnc5c(n4)NC(=O)CO5)CC3)c2n1.Cl [Formula (V) HCl salt, 6-((((1R,4R)-4-(((6-fluoro-3-methoxyquinoxalin-5-yl)methyl)amino)cyclohexyl)amino)methyl)-2H-pyrazino[2,3-b][1,4]oxazin-3(4H)-one, Hydrochloride] | – | – | – | ≤2 | ≤0.25 | ≤0.063 | ≤0.125 |
| COc1ccc2ncc(=O)n(CCN3CC[C@@H](CNCc4ncc5c(n4)NC(=O)CO5)C3)c2n1 [Formula (VII) free base, 2-({[((3S)-1-{2-[6-(methyloxy)-3-oxopyrido[2,3-b]pyrazin-4(3H)-yl]ethyl}-3-pyrrolidinyl)methyl]amino}methyl)-1H-pyrimido[5,4-b][1,4]oxazin-7(6H)-one] | – | – | – | – | ≤0.125 | ≤0.125 | ≤0.25 |
| COc1cnc2ccc(F)c(CN[C@H]3CC[C@H](NCc4cnc5c(n4)NC(=O)CO5)CC3)c2n1 [Formula (V) free base, 6-((((1R,4R)-4-(((6-fluoro-3-methoxyquinoxalin-5-yl)methyl)amino)cyclohexyl)amino)methyl)-2H-pyrazino[2,3-b][1,4]oxazin-3(4H)-one] | ≤ 0.25 | ≤ 0.125 | ≤ 0.25 | – | – | – | – |
| COc1ccc2ccc(=O)n(CCN3C[C@H](CNCc4cnc5c(n4)NC(=O)CS5)[C@H](O)C3)c2n1 [Compound Y, 1-{2-[(3S,4S)-3-hydroxy-4-{[({3-oxo-2H,3H,4H-pyrazino[2,3-b][1,4]thiazin-6-yl}methyl)amino]methyl}pyrrolidin-1-yl]ethyl}-7-methoxy-1,2-dihydro-1,8-naphthyridin-2-one] | – | ≤ 0.125 | ≤ 0.032 | – | – | – | – |
| Cn1cc(C(=O)O)c(=O)c2c(CC[C@H]3CC[C@H](NCc4cnc5c(n4)NC(=O)CS5)CC3)c(F)cc(F)c21 [Compound Z, TFA salt, 6,8-difluoro-1-methyl-4-oxo-5-(2-((1r,4s)-4-(((3-oxo-3,4-dihydro-2H-pyrazino [2,3-b][1,4]thiazin-6-yl)methyl)amino)cyclohexyl)ethyl)-1,4-dihydroquinoline-3-carboxylic acid] | – | ≤ 0.063 | > 32 | – | – | – | – |
